Data as given in PubChem BioAssay AID485294 (National Center for Advancing Translational Sciences (NCATS), 2010).
About 150 (0.041%) of roughly 370,000 compounds were called active. Inconclusive means that the source gave no clear call. Such entries were picked first, then a sample of the others. The call rests on the fitted dose curve; in most records, active means well fitted inhibition curve with a large enough effect; inconclusive means small, poorly fitted or top-dose-only effect; inactive means flat fitted curve, though single readings scatter. No potency is given beside an inconclusive call; the fits are too rough.

molecular target: Beta-lactamase (Escherichia coli (strain K12)) (UniProt P00811); assay: qHTS Inhibitors of AmpC Beta-Lactamase (assay with detergent); conditions: AmpC hydrolysis of nitrocefin, absorbance 480 nm, 0.01% Triton; activity change, negative = inhibition: at 114 µM (top of the series); further: nearly all actives have a fitted effect of over 25% in size;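 on activity change, negative = inhibition: 0% = no-compound wells and -100% = no-enzyme wells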
UniProt P00811, sequence (P00811 whole entry, looked up): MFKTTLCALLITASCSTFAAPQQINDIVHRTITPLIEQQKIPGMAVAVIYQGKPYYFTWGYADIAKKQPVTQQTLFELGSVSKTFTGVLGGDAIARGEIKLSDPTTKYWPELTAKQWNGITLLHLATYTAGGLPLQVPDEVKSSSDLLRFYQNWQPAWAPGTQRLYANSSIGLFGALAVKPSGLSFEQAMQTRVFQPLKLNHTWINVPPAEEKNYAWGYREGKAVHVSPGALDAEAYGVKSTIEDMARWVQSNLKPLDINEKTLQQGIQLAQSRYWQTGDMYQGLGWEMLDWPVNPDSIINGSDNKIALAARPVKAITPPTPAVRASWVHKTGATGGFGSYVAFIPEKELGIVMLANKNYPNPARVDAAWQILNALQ
Summary of the method: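 AmpC (5.3 nM in the dispensed reagent) in 20 mM phosphate pH 7.0 with 0.01% (detergent screen) or 0.0001% Triton X-100 was preincubated with compounds for 15 min at room temperature. Nitrocefin was then added from an 800 uM solution, and hydrolysis was followed at 480 nm.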
Potency means the concentration at half of the fitted maximal effect; tags describe the fitted curve by direction and shape.

Q: Which “activity change, negative = inhibition” value does the source give for C/C(Cc1ccccc1)=N\NC(=O)CNC(=O)c1cccc(Cl)c1 here?
A: inactive: -7.66%

Q: For CCC(=O)N1CCN(c2ccc(NC(=O)c3ccco3)cc2)CC1, which “activity change, negative = inhibition” value is on record?
A: inactive: 0.526%

Q: Which Potency does the source give for O=C(O)c1cc(NC(=O)C2CCCO2)cc(C(=O)O)c1 (stereo not given) here?
A: inconclusive [inhibitor, full curve]

Q: CCCCCCC1C(C#N)=C(N)OC2=C1C(=O)CCC2 (stereo not given) was tested. Which Potency did it give?
A: inconclusive [inhibitor, partial curve]

Q: For O=C(O)c1ccc(-n2c(/C=C\c3ccc(O)cc3)nc3ccccc3c2=O)cc1, which “activity change, negative = inhibition” value is on record?
A: inactive: 3.39%

Q: C=CCOc1ccccc1/C=N/NC(=O)c1ccc(Cl)cc1Cl was tested. Which “activity change, negative = inhibition” value did it give?
A: inactive: 0.523%

Q: For COc1ccc(/C=C(\C#N)c2nc(-c3cc4c(ccc5ccccc54)oc3=O)cs2)cc1O, which “activity change, negative = inhibition” value is on record?
A: inactive: 20%

Q: With Cc1ccc(NC(=O)Cn2c(=O)n(CCCCC(=O)NCc3ccccc3Cl)c(=O)c3ccccc32)cc1C as the compound, how does the “activity change, negative = inhibition” value read?
A: inactive: 30%

Q: CCOc1ccc(NC(=O)Cn2c(C)cc3ccccc3c2=O)cc1 was tested. Which “activity change, negative = inhibition” value did it give?
A: inactive: 4.37%

Q: For Cc1cc(C)n(S(=O)(=O)c2ccc3ccccc3c2)n1, which Potency is on record?
A: inconclusive [inhibitor, partial curve, poor fit]

Q: For CC(NC(=O)COC(=O)c1ccc(OCC2CCCO2)cc1)c1ccccc1Cl (stereo not given), which Potency is on record?
A: inconclusive [inhibitor, full curve, poor fit]

Q: CCOc1ccc(OCCSc2nnnn2C2CCCCC2)cc1 was tested. Which Potency did it give?
A: inconclusive [inhibitor, full curve]

Q: Cc1c(C(=O)N2CCN(C3CCS(=O)(=O)C3)CC2)oc2c(F)cccc12 (stereo not given) was tested. Which Potency did it give?
A: inconclusive [inhibitor, partial curve, poor fit]

Q: How did the Potency turn out when O=C(CNS(=O)(=O)c1ccc2ccccc2c1)Nc1ccc(F)c(F)c1F was run?
A: inconclusive [inhibitor, full curve, poor fit]

Q: For CCN(C(=O)COC(=O)C1CC1C)c1c(N)n(Cc2ccccc2)c(=O)[nH]c1=O (stereo not given), which Potency is on record?
A: inconclusive [inhibitor, partial curve]

Q: For Cc1ccccc1Nc1nnc(SCC(=O)c2c(N)n(C)c(=O)n(C)c2=O)s1, which “activity change, negative = inhibition” value is on record?
A: inactive: 6.59%

Q: Which Potency does the source give for O=C(CSc1ncccc1C(=O)O)c1ccccc1 here?
A: inconclusive [inhibitor, full curve]

Q: With CCOC(=O)CNC(=O)c1cccnc1Oc1ccc(Cl)cc1 as the compound, how does the Potency read?
A: inconclusive [inhibitor, full curve, poor fit]

Q: How did the Potency turn out when COCCNC(=O)CSc1nnc(CCCN2C(=O)c3cccc4cccc(c34)C2=O)n1-c1ccccc1 was run?
A: inconclusive [inhibitor, full curve, poor fit]

Q: With COc1cc(C(=O)NCC(=O)N/N=C/c2ccco2)cc(OC)c1OC as the compound, how does the Potency read?
A: inconclusive [inhibitor, partial curve, poor fit]

Q: Which “activity change, negative = inhibition” value does the source give for Oc1cccc(-c2nc3ccc4ccccc4c3c3c2CCC3)c1 here?
A: inactive: 1.16%

Q: How did the Potency turn out when COc1ccccc1Nc1nc(-c2sc(NC(=O)c3cccc(Cl)c3)nc2C)cs1 was run?
A: inconclusive [inhibitor, partial curve, poor fit]

Q: Which “activity change, negative = inhibition” value does the source give for O=[N+]([O-])c1ccc(C[n+]2cc(-c3ccccc3)n3c2CCCCC3)cc1 here?
A: inactive: 4.05%

Q: With Cc1nnc(Sc2c(N)n(C)c(=O)n(C)c2=O)s1 as the compound, how does the Potency read?
A: inconclusive [inhibitor, single point]

Q: How did the Potency turn out when CCCCN=c1scc(-c2ccc3c(c2)NC(=O)CO3)n1N=C1CCCC1 was run?
A: inconclusive [inhibitor, single point]

Q: With Cc1cc(=O)[nH]c(-c2ccccc2O)n1 as the compound, how does the Potency read?
A: inconclusive [inhibitor, full curve, poor fit]

Q: For Cc1sc(NC(=O)c2ccco2)c(C(Nc2ccccn2)c2ccccc2)c1C (stereo not given), which “activity change, negative = inhibition” value is on record?
A: inactive: -6.2%

Q: With CCOc1ccc(C(C)=O)cc1CN1C(=O)NC(C)(C2CC2)C1=O (stereo not given) as the compound, how does the Potency read?
A: inconclusive [inhibitor, full curve, poor fit]

Q: CCNC(=O)Cn1cnc2c1c(=O)n(C)c(=O)n2C was tested. Which Potency did it give?
A: inconclusive [inhibitor, partial curve]

Q: How did the Potency turn out when CCC(=O)N1CCc2cc(Br)cc(S(=O)(=O)CCC(=O)NCCOC)c21 was run?
A: inconclusive [inhibitor, full curve, poor fit]

Q: O=C(O)c1cc2ccccc2oc1=O was tested. Which Potency did it give?
A: inconclusive [inhibitor, partial curve]

Q: How did the “activity change, negative = inhibition” value turn out when Cn1c(-c2ccc3c(c2)OCO3)cc(=O)c2ccccc21 was run?
A: inactive: -7.68%

Q: For CC(C)(C)c1ccc(C(=O)Nc2ccc(C=C(C#N)C#N)cc2)cc1, which “activity change, negative = inhibition” value is on record?
A: inactive: -4.29%

Q: With Cc1cc(NC(=O)C(C)SCC(=O)OCc2c(Cl)cccc2Cl)no1 (stereo not given) as the compound, how does the Potency read?
A: inconclusive [inhibitor, full curve, poor fit]

Q: For COc1ccc(NC(=O)CC2C(=O)N(c3ccc(F)cc3)C(=O)N2Cc2ccco2)cc1 (stereo not given), which Potency is on record?
A: inconclusive [inhibitor, single point]

Q: Which Potency does the source give for Cc1csc(OCc2ccc(C#N)cc2)n1 here?
A: inconclusive [inhibitor, partial curve]

Q: For CCc1nnc(NC(=O)CCC(=O)O)s1, which Potency is on record?
A: inconclusive [inhibitor, full curve, poor fit]

Q: For CCOC(=O)C1CN(S(=O)(=O)c2ccc(C)cc2)c2cc(S(=O)(=O)CC)ccc2O1 (stereo not given), which Potency is on record?
A: inconclusive [inhibitor, full curve, poor fit]

Q: How did the “activity change, negative = inhibition” value turn out when Cc1c(-c2ccc(Br)cc2)nc2ccccn12 was run?
A: inactive: -8.09%

Q: Which “activity change, negative = inhibition” value does the source give for S=C(NCCc1ccccc1)NC1CCC(NC(=S)NCCc2ccccc2)CC1 (stereo not given) here?
A: inactive: 1.65%

Q: How did the Potency turn out when COC(=O)C1CC(=O)N(c2ccc(OCc3ccccc3Cl)cc2)C1 (stereo not given) was run?
A: inconclusive [inhibitor, partial curve, poor fit]

Q: For CCOC(=O)CNC(=O)CSc1nc2nc(C)c(Br)cc2[nH]1, which Potency is on record?
A: inconclusive [inhibitor, partial curve, poor fit]

Q: C=CCn1c(=O)c2ccccc2n2c(SCc3cc(=O)n4ccsc4n3)nnc12 was tested. Which Potency did it give?
A: inconclusive [inhibitor, full curve, poor fit]

Q: With CN1CCN(c2ccccc2NC(=O)COc2ccc(Br)cc2)CC1 as the compound, how does the “activity change, negative = inhibition” value read?
A: inactive: 3.39%

Q: CCc1c(C)sc(NC(=O)c2cc(C3CC3)on2)c1C#N was tested. Which Potency did it give?
A: inconclusive [inhibitor, full curve, poor fit]
